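Step 1: Grow cells in 96-well plates. Step 2: Expose to compound for 48 hours at 5 concentrations. Step 3: Interpolate endpoints linearly; if unreached, use highest concentration. GI50: concentration for 50% inhibition of growth. TGI is the concentration that stops growth completely.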 Peptide text beside a SMILES is read from it. * marks the point of attachment. Cbz = O=C(OCc1ccccc1)*; Boc = CC(C)(C)OC(=O)*; OBn = c1ccc(CO*)cc1

Experimental findings from PubChem BioAssay (NCI) are described below.

The test system of the test is NCI-H322M lung. The test is described as follows: growth of human tumour cells (NCI), 48 h.
Molecule `Cc1[nH]c2ncn(N)c(=N)c2c1Cc1ccccc1` displayed a TGI of more than 100 µM.
Still for that read-out and setting: under `CCOC(=O)C1=C(O)CSC1=Nc1ccc(N=C2SCC(O)=C2C(=O)OCC)cc1` stands 44 µM; under `CCOC(=O)/C(C#N)=N\Nc1ccc(-n2c(C)nc3ccc(Br)cc3c2=O)cc1`, more than 100 µM.
The molecule `CN(Cc1cnc2nc(N)nc(N)c2n1)c1ccc(C(=O)NC2CCCCC2)cc1` showed a TGI of more than 100 µM.
Same read-out and setting: next, `COc1cc(-c2c(C(C)=O)c(-c3ccccc3)n(C3OC(COC(C)=O)C(OC(C)=O)C(OC(C)=O)C3OC(C)=O)c(=S)c2C#N)ccc1O` (configuration not stated): more than 100 µM.
For `OCCC#Cc1ccccc1C#Cc1ccccc1`, the GI50 was 12.8 µM and the TGI worked out at 25.5 µM.
For the molecule `CCC1c2[nH]c3ccccc3c2C[C@H]2C(=O)NC(Cc3ccccc3)C(=O)N12` (some centres not stated), the TGI is more than 100 µM.
On to `Cc1oc2nc(N(C)C)n3c(C)nnc3c2c1C`, for which the TGI was more than 100 µM.
In the case of `COC(=O)C1(c2ccc(OC)cc2)NC(c2ccccc2)C2C(=O)N(c3ccc(OC)cc3)C(=O)C21` (configuration not stated), the TGI is more than 100 µM.
The same measure, in the same setting: next, `O=c1[nH]cnc2c1nnn2C1C=C(CO)C(O)C1O` (configuration not stated): more than 100 µM; `Nc1cc2c3c(cccc3c1)C(=O)N(CCN1CCN(CCN3C(=O)c4cccc5cc(N)cc(c45)C3=O)CC1)C2=O`: more than 100 µM.
On the same count and under the same terms, under `O=C1c2ccccc2-c2ccc(N(Cc3ccc(Br)cc3)Cc3ccc(Br)cc3)cc21` stands more than 100 µM.
On to `O=C(/C=C/c1cccnc1)/C=C/c1cccnc1`, for which the GI50 is 5.58 µM and the TGI turned out to be 18.9 µM.
Turning to `O=c1[nH]nc(Cc2ccc(Cl)cc2)n1Nc1ccccc1`, the TGI was more than 100 µM.
For the molecule `O=C1c2cccnc2-c2nc(-c3ccccc3)cc3c2c1nc1ccccc13`, the GI50 was 13.1 µM and the TGI was 26.6 µM.
`CC(C)=CCc1c(O)c(CC=C(C)C)c2oc3c(c(=O)c2c1O)C(C=C(C)C)Oc1cc(O)ccc1-3` (configuration not stated) registered a TGI of 25.7 µM.
The same measure, in the same setting: next, `CSc1nc2ccccc2c(=O)n1-c1cccc(C)c1`: more than 100 µM.
Turning to `N=C(N)c1ccc(-c2ccc(-c3ccccc3)o2)cc1`, the GI50 is 1.99 µM and the TGI was 4.59 µM.
Consider `CC1C2CC(CC2=O)C1(C)C` (configuration not stated), for which the TGI is more than 100 µM.
Regarding `COc1cccc(C2C3=C(COC3=O)N(CCO)c3cc4c(cc32)CCC4)c1` (configuration not stated), the GI50 was 0.404 µM and the TGI was more than 32.3 µM.
For the molecule `COC(=O)C(CCCCNC(=O)OCc1ccccc1)NC(=O)C(CCC(=O)OCc1ccccc1)NC(=O)OC(C)(C)C` (configuration not stated) (Boc-Glu(OBn)-Lys(Cbz)-OMe; configuration not given here), the TGI is more than 100 µM.
The same measure, in the same setting: under `C=C1C(=O)OC2C3C(=C)[C@@H](OC(C)=O)CC3C(C)=CC(OC(=O)C(C)(O)C(C)OC(C)=O)[C@@H]12` (some centres not stated) stands more than 100 µM.
`C/C(=N\NC(=S)Nc1ccccc1)c1ccccn1`: the GI50 was 0.0799 µM and the TGI was 5.94 µM.
`CCOC(=O)c1c(-c2ccccc2)[nH]c2ccccc2c1=O` showed a TGI of more than 100 µM.
In the case of `CC1(C)CCC(CN2CCN(c3ccc(C(=O)NS(=O)(=O)c4ccc(NCC5CCOCC5)c([N+](=O)[O-])c4)c(Oc4cnc5[nH]ccc5c4)c3)CC2)=C(c2ccc(Cl)cc2)C1`, the GI50 was 2.92 µM and the TGI was 9.77 µM.
Turning to `COc1ccc(Br)c(CCCCC(=O)O)c1`, the TGI was more than 100 µM.
As for `Cn1cc(-c2csc(-c3cn(C)c4ncccc34)n2)c2ccccc21`, the GI50 was 0.86 µM and the TGI is more than 100 µM.
Take `CCN(CC)c1ccc(/C=C/C2=[N+](C)c3ccccc3C2(C)C)cc1`: the GI50 is 1.33 µM and the TGI came out at 16.5 µM.
Consider `CCCCCNC(=O)C1C(=O)N(CCCCC)C(=O)/C1=N\N` (configuration not stated), for which the TGI was more than 100 µM.
Same read-out and setting: under `O=C1c2cc([N+](=O)[O-])cnc2S(=O)(=O)N1c1ccc(Oc2ccccc2)cc1` stands more than 100 µM; under `CC(=O)NC1C(OCc2ccccc2)OC(CO)C(O)C1OC(C)C(=O)NC(C(=O)NC(CCC(=O)Nc1ccc2c(c1)CN1C(=O)c3ccccc3C1=N2)C(N)=O)C(C)C` (configuration not stated), more than 100 µM; under `CSC(=S)Nc1cc(C)ccn1`, more than 100 µM.
Regarding `O=S(=O)(Nc1ccc2ccc3cccc4ccc1c2c34)c1ccccc1`, the TGI is more than 100 µM.
Turning to `Nc1nccc(C#Cc2cncnc2Nc2ccc(OCc3cccc(F)c3)c(Cl)c2)n1`, the GI50 is 4.89 µM and the TGI was 9.72 µM.
In the same order, the values of `COc1cc2nc(-c3ccc(Cl)cc3)cc(OCCCN3CCC(O)CC3)c2cc1OC` are 3.22 µM and 18.4 µM.
Molecule `Brc1ccc(C2(N3CCCCC3)CCCCC2)s1` registered a TGI of more than 100 µM.
Take `C=C1C(=O)C23C(O)C1CCC2C12CO[C@]3(O)[C@@H](O)C1C(C)(C)CCC2O` (some centres not stated): the TGI came out at 29.7 µM.
Still for that read-out and setting: under `COc1ccc(N=C/C=C/C(=C/COC(C)=O)OC(C)=O)cc1` stands more than 100 µM; under `O=C(O)c1ccccc1/C=C1\Cc2ccc3c(c2C1=O)CCCC3`, more than 100 µM.
Still for that read-out and setting: under `CC1=NN(c2ccccc2Cl)C2(C1)SCC(=O)N2c1nc2ccccc2s1` (configuration not stated) stands more than 100 µM; under `COc1cccc2c(=O)c3c(O)c4cc(N(C)C)ccc4c(OC(C)=O)c3oc12`, more than 100 µM; under `CCOC(=O)c1c(C)n(-c2ccc(C)cc2)c2c1cc(O)c1[nH]c3c(c12)CCCC3`, 81.2 µM.
On the same count and under the same terms, next, `COC(=O)CC(CC(=O)C(=O)OC)C(=O)OC` (configuration not stated): more than 100 µM; `Nc1nc(Cl)cc(NCC2(CO)CC(O)C2)n1` (configuration not stated): more than 100 µM.
As to `C/C=C(\C)C(=O)O[C@@H]1C=CC(=O)O[C@H]1COC(=O)[C@H](C)O`, the GI50 is 23.8 µM and the TGI came out at 47.5 µM.
On to `O=C(O)C1CCCCN1CCc1c[nH]c2ccccc12` (configuration not stated), for which the TGI is more than 100 µM.
Same read-out and setting: next, `COc1ccc(C(c2ccccc2)N2C(=O)CCC2C(=O)O)cc1OC` (configuration not stated): more than 100 µM; `Cc1cc(C)c2c(c1C)CN1CN2Cc2c(C)c(C)cc(C)c21`: more than 100 µM.
Regarding `NCCCNCCCNc1nc2ccccc2c2[nH]c3ccccc3c12`, the GI50 is 0.323 µM and the TGI is 2.64 µM.
For the molecule `Cn1cc(-c2ccc3c(c2)ncn3-c2ccc(CC(=O)Nc3cc(C(C)(C)C)on3)cc2)cn1`, the GI50 was 0.556 µM and the TGI was found to be 7.62 µM.
Turning to `Cn1cccc1C1CC(=O)N(CCC[Se]C#N)C1=O` (configuration not stated), the GI50 was 1.77 µM and the TGI is 5.34 µM.
As to `CCOC(=O)/C(=C/c1c(-c2ccccc2)[nH]c2ccccc12)C(=O)c1ccc(Cl)cc1`, the GI50 is 98.4 µM and the TGI was more than 100 µM.
With `CC(=O)C(CN1CCOCC1)C(c1ccccc1)c1c(O)c2ccccc2oc1=O` (configuration not stated), the TGI is more than 100 µM.
Regarding `CC1(C)CC(C2CC(C)(C)CC(C)(C)[C@H]2O)[C@@H](O)C(C)(C)C1` (some centres not stated), the TGI was more than 100 µM.
For `N=C1SCCS1`, the TGI is more than 100 µM.
On the same count and under the same terms, under `CC(C)c1cccc(C(C)C)c1NC(=S)Nc1ccccc1` stands more than 100 µM; under `C[C@H]1ON2CCC[C@@H]2[C@@H]1C(=O)N1C2CC3CCC2(CS1(=O)=O)C3(C)C` (some centres not stated), more than 100 µM.
`C1=C(N2CCOCC2)/C(=C2\SC(=Nc3ccccc3)C(=Nc3ccccc3)N2c2ccccc2)CC1`: the TGI was more than 100 µM.
Still for that read-out and setting: under `CCOC(=O)CC(=O)Nc1c(C(=O)OCC)sc2nc(SC)nc(Nc3ccc(OC)c(OC)c3)c12` stands more than 100 µM; under `O=C1C2=Cc3ccccc3CCN2c2ccc([N+](=O)[O-])cc21`, more than 100 µM; under `Cc1cc(N(CCC#N)CCC#N)ccc1N=Nc1ccc([N+](=O)[O-])cc1`, more than 100 µM.
`COc1ccccc1NS(=O)(=O)c1cc(C(C)(C)C)ccc1OCCOc1ccc(C(C)(C)C)cc1S(=O)(=O)Nc1ccccc1OC` showed a TGI of more than 100 µM.
The same measure, in the same setting: next, `N#CCCN(CCC#N)c1ccc(/C=C2\N=C(c3ccccc3)N(NC(=O)c3ccncc3)C2=O)cc1`: more than 100 µM.
Still for that read-out and setting: under `O=C(c1no[n+]([O-])c1C(=O)c1csc2ccccc12)c1csc2ccccc12` stands 31.2 µM; under `COc1cc(O)c2c(=O)cc(C3(OC(C)=O)C=CC(OC4OC(CO)C(O)C(O)C4O)C=C3)oc2c1` (configuration not stated), more than 100 µM; under `CC(C)=CCC/C(C)=C/CC/C(C)=C/C(O)c1ccccc1` (configuration not stated), 35 µM.
On the same count and under the same terms, under `COc1cc(C2c3cc4c(cc3[C@@H](OCCN)[C@H]3COC(=O)C23)OCO4)cc(OC)c1O` (some centres not stated) stands 28.6 µM.
Turning to `CN(C)c1ccc(N=C(C#N)c2nc(N)nc(N3CCOCC3)n2)cc1`, the GI50 was 41.8 µM and the TGI is more than 100 µM.
As to `COC(=O)c1c(OC(C)=O)ccc2c1c1c(n2Cc2ccccc2)C(=O)c2ccccc2C1=O`, the TGI turned out to be 74.2 µM.
On the same count and under the same terms, under `C/C(O)=C/c1nc2sc(C)c(C)c2c(=O)s1` stands more than 100 µM; under `O=C(Nc1ccc(Cl)cc1)C(=O)C1=C(O)c2ccccc2OC1`, more than 100 µM.
In the case of `COc1cc(-c2cn(-c3ccc(Cl)cc3)c(=O)n2-c2ccccc2)cc(OC)c1OC`, the GI50 was more than 60.9 µM and the TGI was more than 100 µM.
`COc1ccc2[nH]c3c(c2c1)CCc1ccccc1-3` gave a TGI of more than 100 µM.
The molecule `CC1(c2nc3ccccc3[nH]2)CCC(CO)C(C)(C)O1` (configuration not stated) yielded a TGI of more than 100 µM.
With `O=C(N/N=C1\CCc2ccccc21)N/N=C1\CCc2ccccc21`, the TGI was more than 100 µM.
Turning to `CC(=O)[CH-]C(=O)c1ccccc1.CC(=O)[CH-]C(=O)c1ccccc1.[O-]Cc1cccs1.[O-]Cc1cccs1.[Ti+4]`, the GI50 was 59.5 µM and the TGI is more than 100 µM.
With `COC(=O)Oc1nn(C(=O)OC)c(=O)c2ccccc12` (tested in a mixture with another compound), the TGI was more than 100 µM.
Molecule `CC(C)Cn1cnnc1NS(=O)(=O)c1cc(C(=O)NN)c(Cl)cc1S` displayed a TGI of more than 10 µM.
As for `COc1ccc2c(c1)C(=O)/C(=C/c1ccc(OCC(=O)c3ccc(Cl)cc3)cc1)O2`, the GI50 is more than 100 µM and the TGI is more than 100 µM.
For `Nc1ccc(C(=O)O)c2[nH]c3ccccc3c(=O)c12`, the TGI was more than 100 µM.
Consider `C#CCSc1nnnn1-c1ccc(Br)c(C)c1`, for which the GI50 is 79.5 µM and the TGI was more than 100 µM.
In the case of `CCOC(=O)C(NC(=O)Nc1ccccc1F)(OC)C(F)(F)F` (configuration not stated), the TGI was more than 100 µM.
For the molecule `Cc1ccc2c(c1)/C(=N\N=C/c1cn(C(C)C)c3ccccc13)C(=O)N2`, the GI50 was 4.82 µM and the TGI is more than 100 µM.
Take `CCC/C(Cl)=N/OC(=O)Nc1cccc(F)c1`: the TGI came out at 32.2 µM.
`CCCN=C1S/C(=C/c2ccc(OC)c(OC)c2)C(=O)N1c1ccccc1` returned a TGI of more than 100 µM.
